Hit rate of the full screen: of about 270,000 compounds, about 620 (0.23%) were called active. Inconclusive means that the source gave no clear call. Such entries were picked first, then a sample of the others. Calls follow the shape of the dose curve; as a rule, active = well fitted inhibition curve with a large enough effect in the polarisation, with a control signal flat (not every such curve was filed as active); inconclusive = small, poorly fitted or top-dose-only effect, or effect the other way, or a change in a side signal; inactive = no such curve, though single readings can be large or run the other way; the % refers to the polarisation. Potencies beside an inconclusive call are fits to weak or partial responses and may not hold up. A note “side channel” means that the fit belongs to a control or component signal, not to the main read-out.
molecular target: Menin (Homo sapiens) (UniProt O00255); experiment: qHTS Assay for Inhibitors Targeting the Menin-MLL Interaction in MLL Related Leukemias: Competition With Texas Red Labeled MLL-derived Mutant Peptide; settings: fluorescence polarization; series mostly up to 61.6 µM
Potency is read from the fitted curve at half-maximal effect; tags tell the direction and shape of the fitted curve or compound fluorescence and quenching.

Sequence of UniProt O00255 (O00255 whole entry, looked up): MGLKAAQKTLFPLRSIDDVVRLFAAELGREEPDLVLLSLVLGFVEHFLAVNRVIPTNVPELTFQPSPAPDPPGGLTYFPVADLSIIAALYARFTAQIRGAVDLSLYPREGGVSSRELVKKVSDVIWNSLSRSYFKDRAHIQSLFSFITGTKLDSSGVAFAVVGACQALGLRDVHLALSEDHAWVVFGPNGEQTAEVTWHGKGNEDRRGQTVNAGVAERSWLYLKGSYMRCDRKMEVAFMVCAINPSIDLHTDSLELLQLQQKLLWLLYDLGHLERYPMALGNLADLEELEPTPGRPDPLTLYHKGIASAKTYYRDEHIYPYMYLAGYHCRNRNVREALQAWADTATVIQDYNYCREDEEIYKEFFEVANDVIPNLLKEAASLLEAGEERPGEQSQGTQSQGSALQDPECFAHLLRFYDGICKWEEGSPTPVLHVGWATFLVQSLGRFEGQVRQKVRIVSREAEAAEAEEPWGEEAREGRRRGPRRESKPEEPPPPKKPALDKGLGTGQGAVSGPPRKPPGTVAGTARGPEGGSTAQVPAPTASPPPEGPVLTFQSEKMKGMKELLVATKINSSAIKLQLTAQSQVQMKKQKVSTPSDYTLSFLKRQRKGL

Potency, inactive:
O=C(Nc1nc2ccccc2[nH]1)c1cccc(S(=O)(=O)N2CCOCC2)c1, COc1ccc(/C=C/C(=O)CC(=O)/C=C/c2cccc(O)c2OC)cc1O, Cn1c(O)c(N=NC(=O)CNC(=O)/C=C/c2ccccc2)c2ccccc21, O=C(CN1CCN(CC(=O)Nc2ccccc2Cl)CC1)Nc1ccc(F)c(F)c1, COC(=O)[C@@H](c1ccccc1)N(C)S(=O)(=O)c1cccc(S(=O)(=O)N(C)[C@@H](C(=O)OC)c2ccccc2)c1, Nc1c(S(=O)(=O)c2cccs2)c2nc3ccccc3nc2n1CCc1ccccc1, CCC(C)c1cc([N+](=O)[O-])cc([N+](=O)[O-])c1OC(=O)OC(C)C (stereo not given), CCc1ccc(N(CC(=O)NC2CCCCC2)C(=O)CCC(=O)Nc2ccccn2)cc1, CN(C1CCCCC1)S(=O)(=O)c1ccc(NC(=O)Cn2nc(-c3ccc(F)cc3)ccc2=O)cc1, O=C(NN=C1CCCC1)c1ccn[nH]1, Cc1c(NC(=O)COc2cccc3c2OC(C)(C)C3)c(=O)n(-c2ccccc2)n1C

Potency, inconclusive:
Cc1ccc(-c2ccc(=O)n(CCC(=O)N3CCN(Cc4ccccc4)CC3)n2)cc1 2.82 µM [inhibitor, full curve], CC(=O)C1=C(C)OC(N)=C(C#N)C1c1ccncc1 (stereo not given) 7.08 µM [inhibitor, full curve, poor fit], Cc1ccc(S(=O)(=O)Oc2ccccc2/C=N/NC(N)=S)cc1 39.8 µM [fluorescent, side channel, single point], Cc1oc2ccc(O)c(CN3CCOCC3)c2c1C(=O)c1ccc(Cl)cc1 4.47 µM [inhibitor, single point], Cc1ccc(SCCNC(=O)/C=C/c2ccccc2Cl)cc1 3.16 µM [quencher, side channel, partial curve, poor fit], CCN(CC)S(=O)(=O)c1cccc(NC(=O)COC(=O)/C=C/c2ccco2)c1 31.6 µM [quencher, side channel, single point], O=C(CCn1nnc(-c2cccs2)n1)N1CCc2ccccc2C1 50.1 µM [inhibitor, partial curve, poor fit], CCn1c2ccccc2c2cc(NS(=O)(=O)c3ccccc3C)ccc21 5.01 µM [quencher, side channel, full curve], COc1cc(/C=N/NC(=O)c2ccc(NC(=O)C3CC3)cc2)ccc1OC(C)=O 39.8 µM [fluorescent, side channel, single point], O=C(Nc1ccccn1)c1cc2ccccc2cc1O 5.01 µM [quencher, side channel, full curve, poor fit], Oc1ccc(C2=NNC(=NCc3ccc4c(c3)OCO4)SC2)c(O)c1 39.8 µM [quencher, side channel, single point], N#CC1=C(N)C2=CCCC[C@H]2[C@H](c2ccc(Br)cc2)C1(C#N)C#N 25.1 µM [quencher, side channel, partial curve], CC(=O)NCCN=Cc1sc2ccccc2c1O 0.708 µM [inhibitor, partial curve, poor fit], Cc1ccc(C)c(Nc2nc(N)c3ccccc3n2)c1 39.8 µM [inhibitor, single point], CN(CC(=O)Nc1ccc(Cl)cc1)c1ccc(S(=O)(=O)N2CCCCC2)cc1[N+](=O)[O-] 11.2 µM [quencher, side channel, partial curve], COc1cc(OC)c(C(=O)Nc2ccc3ccccc3c2)cc1OC 39.8 µM [inhibitor, single point], Cc1[nH]n(-c2ccc(Cl)cc2)c(=O)c1/C=N/n1c(C)nc2ccccc2c1=O 31.6 µM [quencher, side channel, single point], O=c1ccc(-c2ccccc2)nn1Cc1ccccc1F 8.91 µM [fluorescent, side channel, full curve], O=C(N/C(=C/c1ccccc1)C(=O)N1CCCCCC1)c1ccccc1 15.8 µM [fluorescent, side channel, partial curve], COC(=O)c1ccc(NC(=O)c2ccc(N(C)S(C)(=O)=O)cc2)cc1 10 µM [inhibitor, full curve], O=C1CCC(C(=O)Nc2cccc3ccccc23)N1 (stereo not given) 39.8 µM [inhibitor, single point], O=C1/C(=C/c2ccc(O)c(O)c2)Oc2ccccc21 28.2 µM [fluorescent, side channel, partial curve], Cc1ccc(CN2CCNC(=O)C2CC(=O)NCC(F)(F)F)o1 (stereo not given) 39.8 µM [fluorescent, side channel, single point], Nc1ccc(-c2nc3ccc(N)cc3[nH]2)cc1 31.6 µM [quencher, side channel, single point], COc1ccc(CCN2C(=S)N(C)C(=O)C2CC(=O)Nc2ccc(OC)cc2)cc1 (stereo not given) 17.8 µM [quencher, side channel, partial curve], COc1cc(C(=O)N/N=C/c2ccsc2C)cc(OC)c1OC 15.8 µM [inhibitor, single point], CSc1ccc(S(=O)(=O)Nc2ccc(NC(C)=O)cc2)cc1 22.4 µM [quencher, side channel, partial curve], CN(C)c1ccc(-c2cc(NCc3ccccc3)ncn2)cc1 25.1 µM [quencher, side channel, single point], CCCCCC(=O)NC(=S)Nc1ccc(NC(=O)c2ccco2)cc1 39.8 µM [inhibitor, single point], Oc1ccccc1CNc1cccc2cccnc12 22.4 µM [quencher, side channel, partial curve], COc1ccc(N=c2oc3cc(O)ccc3cc2C(=O)Nc2ccccn2)cc1OC 3.55 µM [quencher, side channel, full curve], N#C/C(=C/c1ccco1)c1nc2ccccc2s1 14.1 µM [quencher, side channel, partial curve], Cc1cccc(N2CCN(C(=O)N3CCCCC3)CC2)c1C 11.2 µM [fluorescent, side channel, partial curve], Cc1ccc(C2=NC(=O)/C(=C/c3cc(O)c(O)c(Br)c3)S2)cc1 31.6 µM [fluorescent, side channel, single point], Cc1cccc(NC(=O)Cn2cc(C(=O)c3ccco3)c3ccccc32)c1 8.91 µM [quencher, side channel, partial curve], O=[N+]([O-])c1ccc(Oc2cc(NC3CCCCCCC3)c([N+](=O)[O-])cc2[N+](=O)[O-])cc1 31.6 µM [quencher, side channel, single point], O=C1CCN(Cc2ccc(O)cc2)CCN1[C@H](CO)Cc1ccccc1 0.631 µM [inhibitor, full curve, poor fit], c1ccc(C(c2ccccc2)N2CCN(Cc3nnnn3C3CCCC3)CC2)cc1 2.82 µM [fluorescent, side channel, full curve, poor fit], COC(=O)c1[nH]c2ccccc2c1NC(=O)/C=C/c1ccc2c(c1)OCO2 31.6 µM [quencher, side channel, single point], Cc1ccc(Cl)cc1N(CC(=O)NCc1ccccc1)S(C)(=O)=O 22.4 µM [quencher, side channel, partial curve], O=C(NCc1ccncc1)c1ccccc1Nc1ccc(SC(F)F)cc1 12.6 µM [quencher, side channel, partial curve], Cc1cc2c(OCC(O)CNCc3ccco3)cccc2[nH]1 (stereo not given) 39.8 µM [inhibitor, single point], O=[N+]([O-])c1cc(C(F)(F)F)ccc1NCCc1c[nH]c2ccccc12 15.8 µM [quencher, side channel, partial curve], Nc1nn2cc(-c3ccccc3)nc2c2ccccc12 11.2 µM [quencher, side channel, partial curve], CN1c2ccc(C=O)c3c(C=O)ccc(c23)N(C)C1(C)C 28.2 µM [fluorescent, side channel, partial curve], CC(C)(O)C#Cc1ccc(C(=O)Nc2ccc3c(c2)OCO3)s1 25.1 µM [quencher, side channel, single point], COc1ccc2nc(-c3ccco3)c(-c3ccco3)nc2c1 12.6 µM [quencher, side channel, partial curve], Cc1ccc2sc(NNC(=O)c3cc(=O)c4ccccc4o3)nc2c1C 6.31 µM [quencher, side channel, partial curve], O=C(CCN1C(=O)c2ccccc2C1=O)Nc1ccc(-c2nc3ccccc3s2)cc1 3.98 µM [inhibitor, full curve]

From PubChem BioAssay AID1768 (National Center for Advancing Translational Sciences (NCATS), 2009)
